From the supplement of paper PMC7125110
± gives the standard error. This sample is rich in variants without activity.

B1: glmS ribozyme (parent)
chain: AUAAAAGCGCCAGAACUACAGAAAUGUAGUUGACGAGGAGGAGGUUUAUCGAAUUUUCGGCGGAUGCCUCCAAA

What was measured:
Settings in all cases: with glucosamine-6-phosphate
[1] = variants of: B1; test: self-cleavage kobs at 40 uM GlcN6P; higher = faster cleavage; RNA array
Method in brief: (§1)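 Tracking of barcoded ribozyme variants used a hybridised Cy3 probe at 37 °C, after in situ transcription by E. coli RNA polymerase on sequenced MiSeq chips. The flowed solution held 40 μM to 10 mM glucosamine-6-phosphate in HEPES/KCl/Mg(OAc)2 buffer, and imaging ran over ~14 h. kobs was taken from exponential decay fits of normalised per-tile medians, and kcat and KM from weighted Michaelis–Menten fits.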

[2] = variants of: B1; test: self-cleavage kobs at 640 uM GlcN6P; higher = faster cleavage; RNA array
Method in brief: as §1

[3] = variants of: B1; test: self-cleavage kobs at 160 uM GlcN6P; higher = faster cleavage; RNA array
Method in brief: as §1

[4] = variants of: B1; test: self-cleavage kobs at 2500 uM GlcN6P; higher = faster cleavage; RNA array
Method in brief: as §1

[5] = variants of: B1; test: self-cleavage kobs at 10000 uM GlcN6P; higher = faster cleavage; RNA array
Method in brief: as §1

Variant	self-cleavage kobs at 40 uM GlcN6P [1] [s⁻¹]	self-cleavage kobs at 640 uM GlcN6P [2] [s⁻¹]	self-cleavage kobs at 160 uM GlcN6P [3] [s⁻¹]	self-cleavage kobs at 2500 uM GlcN6P [4] [s⁻¹]	self-cleavage kobs at 10000 uM GlcN6P [5] [s⁻¹]
U46G G63U	< 1e-05	< 1e-05	< 1e-05	< 1e-05	< 1e-05
U45C U46A	< 1e-05	–	–	–	–
G44U C50G	< 1e-05	–	–	–	< 1e-05
G44U C50U	< 1e-05	< 1e-05	< 1e-05	< 1e-05	< 1e-05
U49A C50G G59C G63U	< 1e-05	–	–	–	–
A48G U49A G51A	< 1e-05	–	–	–	–
U46A A64G	0.000102 ± 2.3e-05	0.000754 ± 0.00015	–	0.00242 ± 0.00047	–
U46G U65G	4.1e-05 ± 8.8e-06	0.000467 ± 7.5e-05	0.000189 ± 3.4e-05	0.00124 ± 0.00017	0.0019 ± 0.0003
G44A C68A	< 1e-05	< 1e-05	< 1e-05	< 1e-05	< 1e-05
U45G G62A C70G C71G	< 1e-05	–	–	–	–
U45G U57A	< 1e-05	–	–	–	–
U47G A64U	< 1e-05	–	–	–	–
U49A G59A	< 1e-05	< 1e-05	< 1e-05	< 1e-05	–
U49A G59C	< 1e-05	< 1e-05	–	< 1e-05	< 1e-05
U49A C58U U65C	< 1e-05	–	–	< 1e-05	< 1e-05
G44U C58A	< 1e-05	< 1e-05	< 1e-05	< 1e-05	< 1e-05
U46C G62C	< 1e-05	–	–	–	< 1e-05
U46C G62A	< 1e-05	–	< 1e-05	< 1e-05	< 1e-05
G44C C61U	< 1e-05	< 1e-05	< 1e-05	< 1e-05	< 1e-05
U45G A48U C71G	< 1e-05	–	–	–	–
U45G C71U	0.000147 ± 1.7e-05	0.00152 ± 0.00031	0.000517 ± 8.8e-05	0.00519 ± 0.00062	0.00653 ± 0.0008
